The supplement of paper PMC12217912
The other results are listed elsewhere or left out. The full chains were built here from the parent and the listed change. Values near 0.05 are background.

B1: TEV protease; numbered along this chain (parent)
chain: MGESLFKGPRDYNPISSSICHLTNESDGHTTSLYGIGFGPFIITNKHLFRRNNGTLVVQSLHGVFKVKDTTTLQQHLVDGRDMIIIRMPKDFPPFPQKLKFREPQREERICLVTTNFQTKSMSSMVSDTSCTFPSGDGIFWKHWIQTKDGQCGSPLVSTRDGFIVGIHSASNFTNTNNYFTSVPKNFMELLTNQEAQQWVSGWRLNADSVLWGGHKVFMVKPEEPFQPVKEATQL

Variants of: B1
Assay: raw area under fraction-flipped curve 0-4 h after induction (AUC4h, not background-subtracted), DNA-recorder readout of cleavage of the substrate (dimensionless); higher = more cleavage of the substrate by the protease variant
Settings: temperature: 34 °C; time window: 0-4 h after rhamnose induction
Experimental: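 In vivo DNA recorder in E. coli TOP10(DE3) ΔrhaA at 34 °C. Each TEVp single-site mutant (parent TEVp 0) is paired with a single-site variant of the 7-mer TEVs (canonical ENLYFQ|S). The substrate sits between flexible linkers in a Bxb1-sfGFP-TEVs-SsrA fusion, so cleavage stabilises Bxb1 and speeds flipping of a recombination array, read by NGS. The value is the raw area under the fraction-flipped curve over 0-4 h after rhamnose induction (AUC4h), with ≥20 reads per time point. It is not background-subtracted; inactive controls average about 0.047.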
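Further: Bxb1 expression induced with 0.2% (w/v) L-rhamnose at OD600 near 0.5, cultures sampled hourly, flipped fraction per protease–substrate barcode pair counted by paired-end Illumina sequencing.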

Variant	area with substrate ENLDFQS	area with substrate ENLEFQS	area with substrate ENLIFQS	area with substrate ENLKFQS	area with substrate ENLNFQS	area with substrate ENLPFQS	area with substrate ENLSFQS	area with substrate ENLVFQS	area with substrate ENLWFQS	area with substrate ENLCFQS	area with substrate ENLFFQS	area with substrate ENLHFQS	area with substrate ENLLFQS	area with substrate ENLMFQS	area with substrate ENLQFQS	area with substrate ENLRFQS	area with substrate ENLTFQS	area with substrate ENLGFQS
MGESLFKGPRDYNPISSMICHLTNESDGHTTSLYGIGFGPFIITNKHLFRRNNGTLVVQSLHGVFKVKDTTTLQQHLVDGRDMIIIRMPKDFPPFPQKLKFREPQREERICLVTTNFQTKSMSSMVSDTSCTFPSGDGIFWKHWIQTKDGQCGSPLVSTRDGFIVGIHSASNFTNTNNYFTSVPKNFMELLTNQEAQQWVSGWRLNADSVLWGGHKVFMVKPEEPFQPVKEATQL [S18M]	0.0778	0.0655	0.0762	0.0442	0.069	0.0576	0.0691	0.0749	0.0761									
MGESLFKGPRDYNPISSSICHLTNESDGHTTSLYGIGFGPFIITNKHLFRRNNGTLVVQSLHGVFKVKDTTTLQQHLVDGRDMIIIRMPKDFPPFPQKLKFREPQREERICLVTTNFQTKSMSSMVSDTSCTFPSGDGIFWKHWIQTKDGQCGSPLVSTRDGFIVGIHSASNFTNTNNYFTSVKKNFMELLTNQEAQQWVSGWRLNADSVLWGGHKVFMVKPEEPFQPVKEATQL [P184K]	0.0588	0.0786			0.0446		0.0562	0.0715	0.0603	0.0643	0.0774	0.0838	0.0576	0.0449	0.0804			
MGESLFKGPRDYNPISSSICHLTNESDGHTTSLYGIGFGPFIITNKHLFRRNNGTLVVQSLHGVFKVKDTTTLQQHLVDGRDMIIIRMPKDFPPFPQKLKFREPQREERICLVTTNFQTKSMSSMVSDTSCTFPSGDGIFWKHWIQTKDGQCGSPLVSTRDGFIVGIHSASNFTNTNNYFTSVPKNFMELLTNQEAQQWVSGWRLNADSVLWGGHKVFMVKPEEPFQPVKEATGL [Q234G]	0.0643	0.0636	0.0822	0.0776	0.0365	0.065	0.0981	0.108		0.0765	0.093	0.0344	0.0854		0.071	0.0744		
MGESLFKGPRDYNPISSSICHLTNESDGHTTSLYGIGFGPFIITNKHLFRRNNGTLVVQSLHGVFKVKDTTTLQQHLVDGRDMIIIRMPKDFPPFPQKLKFREPQREERICLVTTNFQTKSMSSMVSDTSCTFPSGDGIFWKHWIQTKDGQCGSPLVSTRDGFIVGIHSASNFTNTNNYFTSVPKNPMELLTNQEAQQWVSGWRLNADSVLWGGHKVFMVKPEEPFQPVKEATQL [F187P]	0.041	0.0452		0.0495	0.0556		0.0413			0.0715	0.0462	0.057				0.0513	0.0634	
MGESLFKGQRDYNPISSSICHLTNESDGHTTSLYGIGFGPFIITNKHLFRRNNGTLVVQSLHGVFKVKDTTTLQQHLVDGRDMIIIRMPKDFPPFPQKLKFREPQREERICLVTTNFQTKSMSSMVSDTSCTFPSGDGIFWKHWIQTKDGQCGSPLVSTRDGFIVGIHSASNFTNTNNYFTSVPKNFMELLTNQEAQQWVSGWRLNADSVLWGGHKVFMVKPEEPFQPVKEATQL [P9Q]	0.0564			0.0927	0.0626	0.0384	0.0679				0.0929							
MGESLFKGPRDYNPISSSICHLTNESDGHTTSLYGIGFGPFIITNKHLFRRNNGTLVVQSLHGVFKVKDTTTLQQHLVDGRDMIIIRMPKDFPPFPQKLKFREPQREERICLVTTNFQTKSMSSMVSDTSCTFPSGDGIFWKHWIQTKDGQCGSPLVSTRDGFIVGIHSASNFTNTNNYFTSVPKNFMELLTNQEAQQWVSCWRLNADSVLWGGHKVFMVKPEEPFQPVKEATQL [G202C]	0.0466	0.0496				0.0477				0.0642	0.0582			0.0785	0.0588			
MGESLFKGPRDYNPIFSSICHLTNESDGHTTSLYGIGFGPFIITNKHLFRRNNGTLVVQSLHGVFKVKDTTTLQQHLVDGRDMIIIRMPKDFPPFPQKLKFREPQREERICLVTTNFQTKSMSSMVSDTSCTFPSGDGIFWKHWIQTKDGQCGSPLVSTRDGFIVGIHSASNFTNTNNYFTSVPKNFMELLTNQEAQQWVSGWRLNADSVLWGGHKVFMVKPEEPFQPVKEATQL [S16F]	0.0602		0.0863	0.0665	0.0766	0.0556	0.0632		0.058		0.0689	0.0684	0.0829		0.0777		0.0676	0.0406
MGESLFKGPRDYNPISSSICHLTNESDGHTTSLYGIGFGPFIITNKHLFRRNNGTLVVQSLHGVFKVKDTTTLQQHLVDGRDMIIIRMPKDFPPFPQKLKFREPQREERICLVTTNFQTKSMSSMVSDTSCTFPSGDGIFWKHWIQTKDGQCGSPLVSTRDGFIVGIHSASNFTNTNNYFTSVPKNFMELLTNQEAQQWVSGWRLNADSVLWGGHKVFMVKPLEPFQPVKEATQL [E223L]	0.0638	0.067	0.131	0.0824	0.0618	0.063	0.0581	0.0837		0.0722	0.0806	0.0658	0.0798	0.0825	0.0731	0.0844	0.0565	0.0778
MGESLFKGPRDYNPISSSICHLTNESDGHTTSLYGIGFGPFIITNKHLFRRNNGTLVVQSLHGVFKVKDTTTLQQHLVDGRDMIIIRMPKDFPPFPQKLKFREPQREERICLVTTNFQTKSMSSMVSDTSCTFPSGDGIFWKHWIQTKDGQCGSPLVSTRDGFIVGIHSASNFTNTNNYFTSVPKNFMELLTNQEAQQWVSGWRLNADSVLWGGHKVFFVKPEEPFQPVKEATQL [M219F]	0.066	0.0695	0.0862		0.0791	0.0604	0.0673		0.0875	0.109	0.167				0.0797			
MGESLFKGPRDYNPISSSICHLTNESDGHTTSLYGIGFGPFIITNKHLFRRNNGTLVVQSLHGVFKVKDTTTLQQHLVDGRDMIIIRMPKDFPPFPQKLKFREPQREERICLVTTNFQTKSMSSMVSDTSCTFPSGDGIFWKHWIQTKDGQCGSPLVSTRDGFIVGIHSASNFTNTNNYFTSVPKNFMELLTNQEAQQWVSGWRLNADSVLWGGHKVFAVKPEEPFQPVKEATQL [M219A]	0.033			0.0615	0.0729	0.063	0.0677	0.0786	0.0476	0.068	0.0752	0.0684	0.0677	0.0631		0.0591	0.0666	0.0646
MGESLFKGPRDYNPISSSICHLTNESDGHTTSLYGIGFGPFIITNKHLFRRNNGTLVVQSLHGVFKVKDTTTLQQHLVDGRDMIIIRMPKDFPPFPQKLKFREPQREERICLVTTNFQTKSMSSMVSDTSCTFPSGDGIFWKHWIQTKDGQCGSPLVSTRDGFIVGIHSASNFTNTNNYFTSVPKNFMELLRNQEAQQWVSGWRLNADSVLWGGHKVFMVKPEEPFQPVKEATQL [T192R]	0.0553	0.074		0.0614	0.0571	0.0559	0.0594		0.0548	0.0759	0.0742	0.0673	0.0665	0.0655		0.0622		
MGESLFKGPRDYNPISSSICHLTNESDGHTTSLYGIGFGPFIITNKHLFRRNNGTLVVQSLHGVFKVKDTTTLQQHLVDGRDMIIIRMPKDFPPFPQKLKFREPQREERICLVTTNFQTKSMSSMVSDTSCTFPSGDGIFWKHWIQTKDGQCGSPLVSTRDGFIVGIHSASNFTNTNNYFTSVPKNFMELLTNQEAQQWVSGWRLNADSVLWGGHKVFMVKPEEPFQPVKEATQH [L235H]	0.0623			0.0788	0.0694	0.0646	0.0641		0.0736	0.0907			0.079					
MGESLFKGPRDYNPISSSICHLTNESDGHTTSLYGIGFGPFIITNKHLFRRNNGTLVVQSLHGVFKVKDTTTLQQHLVDGRDMIIIRMPKDFPPFPQKLKFREPQREERICLVTTNFQTKSMSSMVSDTSCTFPSGDGIFWKHWIQTKDGQCGSPLVSTRDGFIVGIHSASNFTNTNNYFTSVPKNFMELLTNQEAQQWVSGWRLNADSVLWGGHKVFMVKPEEPFQPVKEQTQL [A232Q]	0.0541		0.0833	0.124	0.0752	0.0806	0.0618	0.0974	0.0825	0.0615	0.0901			0.0927	0.0787			0.0639
MGESLFKCPRDYNPISSSICHLTNESDGHTTSLYGIGFGPFIITNKHLFRRNNGTLVVQSLHGVFKVKDTTTLQQHLVDGRDMIIIRMPKDFPPFPQKLKFREPQREERICLVTTNFQTKSMSSMVSDTSCTFPSGDGIFWKHWIQTKDGQCGSPLVSTRDGFIVGIHSASNFTNTNNYFTSVPKNFMELLTNQEAQQWVSGWRLNADSVLWGGHKVFMVKPEEPFQPVKEATQL [G8C]	0.0544				0.0576						0.0853					0.0624		
MGESLFKNPRDYNPISSSICHLTNESDGHTTSLYGIGFGPFIITNKHLFRRNNGTLVVQSLHGVFKVKDTTTLQQHLVDGRDMIIIRMPKDFPPFPQKLKFREPQREERICLVTTNFQTKSMSSMVSDTSCTFPSGDGIFWKHWIQTKDGQCGSPLVSTRDGFIVGIHSASNFTNTNNYFTSVPKNFMELLTNQEAQQWVSGWRLNADSVLWGGHKVFMVKPEEPFQPVKEATQL [G8N]	0.0559		0.0924	0.0646	0.0634	0.0413	0.053	0.104	0.0752		0.0838	0.0698						
MGESLFKGPRDYNPISSSICHLTNESDGHTTSLYGIGFGPFIITNKHLFRRNNGTLVVQSLHGVFKVKDTTTLQQHLVDGRDMIIIRMPKDFPPFPQKLKFREPQREERICLVTTNFQTKSMSSMVSDTSCTFPSGDGIFWKHWIQTKDGQCGSPLVSTRDGFIVGIHSASNFTNTNNYFTSVPKNFMELLTNQEAQQWVSGWRLNALSVLWGGHKVFMVKPEEPFQPVKEATQL [D208L]	0.0393	0.0705			0.0582	0.0603	0.0523			0.043	0.0594	0.0697			0.0652	0.0645		
MGESLFKGPRDYNPISSSICHLTNESDGHTTSLYGIGFGPFIITNKHLFRRNNGTLVVQSLHGVFKVKDTTTLQQHLVDGRDMIIIRMPKDFPPFPQKLKFREPQREERICLVTTNFQTKSMSSMVSDTSCTFPSGDGIFWKHWIQTKDGQCGSPLVSTRDGFIVGIHSASNFTNTNNYFTSVPKNFMELLTNQEAQQWVSGWRLNADSYLWGGHKVFMVKPEEPFQPVKEATQL [V210Y]	0.0872	0.0487		0.0601	0.0623	0.0554	0.0519		0.0566	0.065	0.074	0.0542	0.0707		0.0519	0.0539		
MGESLFKGPRDYNPISSSICHLTNESDGHTTSLYGIGFGPFIITNKHLFRRNNGTLVVQSLHGVFKVKDTTTLQQHLVDGRDMIIIRMPKDFPPFPQKLKFREPQREERICLVTTNFQTKSMSSMVSDTSCTFPSGDGIFWKHWIQTKDGQCGSPLVSTRDGFIVGIHSASNFTNTNNYFTSVPKNFMELLTNQEAQQWGSGWRLNADSVLWGGHKVFMVKPEEPFQPVKEATQL [V200G]				0.057		0.0607	0.0476		0.0528	0.0567	0.066	0.0611	0.0489		0.0611			
MGESLFKGPRDYNPISSSICHLTNESDGHTTSLYGIGFGPFIITNKHLFRRNNGTLVVQSLHGVFKVKDTTTLQQHLVDGRDMIIIRMPKDFPPFPQKLKFREPQREERICLVTTNFQTKSMSSMVSDTSCTFPSGDGIFWKHWIQTKDGQCGSPLVSTRDGFIVGIHSASNFTNTNNYFTSVPKNFMELLTNQEAQQWCSGWRLNADSVLWGGHKVFMVKPEEPFQPVKEATQL [V200C]	0.0756	0.0682	0.0684	0.121	0.0472	0.0603	0.0615	0.0679		0.0539	0.0657	0.0809		0.0753		0.0688		0.0658
